In ChEMBL document CHEMBL4888484, “Replenishing the malaria drug discovery pipeline: Screening and hit evaluation of the MMV Hit Generation Library 1 (HGL1) against asexual blood stage Plasmodium falciparum ,using a nano luciferase reporter read-out” (2022):
About 540 (0.36%) of roughly 150,000 compounds showed an effect of 50% or more. The list shows a part of the results.

tested on: Plasmodium falciparum; assay: Primary screen in NF54 nanoGlo assay, in single point, at 2uM, 72h; a lower Z score goes with more inhibition; type: functional, Erythrocyte; settings: timepoint 72 hour

SMILES	% Inhibition	Z score
CO[C@H]1[C@@H]2CC[C@H]1CN(C(=O)NCc1cnc(C)cn1)C2	-8%	1.11
CCCN1Cc2cc(OC)ccc2O[C@@H](CC)C1	-4%	0.52
CC1CCN(C(=O)c2ccc(NC[C@H](O)CN3CCCCC3)nc2)CC1	6%	-0.65
CC[C@@H](CO)N(Cc1cccs1)Cc1ccc(OC)c(O)c1Cl	-7%	1.31
N[C@H]1CN(Cc2ccn[nH]2)C[C@@H]1c1ccccc1F	7%	-1.07
O=C(Cn1cnc2ccccc2c1=O)NCc1nnc2n1CC[C@H](C(F)(F)F)C2	-8%	0.98
NC1(CC(=O)N2CCC[C@H]2c2cccc(Cl)c2)CCC1	3%	-0.38
COc1ccc(-c2cc3ccccc3n2C[C@@H](O)Cn2c(C)nc3ccccc32)cc1	-12%	1.58
O=C(COc1ccccc1F)N1C2C=CCC1CC2 (centres undefined)	-7%	1.26
Cn1cc(C2C[S+]([O-])CCN2C(=O)c2ccc(C(F)F)nc2)cn1 (centres undefined)	-17%	2.02
CC1(C)C[C@@]2(CCO1)NC(C)(C)C(=O)N2CC1CCCC1	2%	-0.21
Cc1ccc2nc(-c3cc(NC(=O)COc4ccc5ccccc5c4)ccc3Cl)oc2c1	-1%	0.13
O=c1c2ccccc2nc(N2CCN(c3cccc(C(F)(F)F)c3)CC2)n1-c1ccccc1	-6%	0.7
COc1cccc2c1NC(=O)C[C@H]2C(=O)N1CCN(c2ncccn2)CC1	-8%	1.15
COc1ccc(Cl)c2sc(N(C[C@H]3CCCO3)C(C)=O)nc12	-9%	1.45
C[C@H]1CCCc2ncc(C(=O)NCC3(C4(O)CCC4)CC3)n21	0%	0.01
CN(CCCc1cc(-c2ccccc2)n[nH]1)C(=O)c1ccc2c(c1)CCC(=O)N2	5%	-0.7
Cc1cccc(C(=O)NCc2ccc3c(c2)CCN3C(=O)c2ccccc2)c1	-7%	1.33
O=C(CN1CCCCS1(=O)=O)NCCC1CCCCC1	-12%	1.46
COc1ccc2oc(C(=O)N3CC[C@H](Oc4ncccn4)C3)cc2c1	-29%	4.5
CC(C)(O)[C@@H]1CCCN1C(=O)Cc1ccc2cn[nH]c2c1	5%	-0.63
CCN(CC)S(=O)(=O)N[C@@H](C)c1ncnn1C	-5%	1.04
O=C(NCc1cc(F)cc(C(F)(F)F)c1)C1CCN(CCO)CC1	-13%	1.38
COc1ccc(S(=O)(=O)NCc2noc(C(C)C)n2)cc1C(C)C	2%	-0.35
O=C(Nc1ccc(OCc2cccc3cccnc23)cc1)c1ccco1	-2%	0.38
C[C@@H](CNC(=O)C1CCC(O)CC1)N1CCCCC1=O (some centres undefined)	-7%	0.71

SMILES	% Inhibition	Z score
CC(C)c1ccc(OCc2ccc(C(=O)N3CCc4ccccc4C3)o2)cc1	-49%	5.74
O=C(NCCN1CCOCC1)[C@H]1CCc2nn(CCOc3ccccc3)c(=O)n2CC1	-5%	0.83
COc1ccc(N2CCN(Cc3cccn3-c3nnc(N4CCOCC4)s3)CC2)cc1	-2%	0.18
CN(Cc1ccccn1)S(=O)(=O)[C@H]1CCCN(C(=O)c2cccc(Cl)c2)C1	5%	-0.57
Cc1cnc(CN2CCCC[C@@H]2Cn2cncn2)cn1	9%	-1.34
C=Cc1cccc([C@H]2N[C@](CO)(c3ccccc3)[C@H]3CN(C)C[C@@H]23)c1	-1%	0.2
O=C(Cc1cccc2ccccc12)N[C@H]1CC(=O)N(c2ccc(F)cc2)C1	-9%	1.71
O=C(NC[C@@]1(O)C=CCCC1)c1ccc2c(c1)OCO2	-2%	0.38
C=CCCS(=O)(=O)N1CCC(n2ccnn2)CC1	0%	0.03
Cc1ccc(CNc2nc(N3CCOCC3)nc3c2cnn3C)cc1	9%	-1.68
Cn1cc(C2CCN(C(=O)N[C@H]3CCCOc4cc(F)ccc43)CC2)cn1	-1%	0.15
Cc1oc2ccn(Cc3ccc(F)cc3)c(=O)c2c1C(=O)N1CCN(c2ccccn2)CC1	5%	-0.75
CCCn1nc(-c2cc(C)sc2C)cc1C(=O)NCc1ccccc1	-12%	1.13
CCOc1ccc(C(=O)N2CCN(c3cnn4c(C5CC5)nnc4c3)CC2)cc1	-5%	0.95
O=C1COc2ccc(Cl)cc2N1Cc1nc(-c2ccc(S(=O)(=O)N3CCCCC3)cc2)no1	-5%	0.75
Nc1nc(N[C@H]2CCCC[C@@H]2c2ccccc2)c2cn[nH]c2n1	-7%	0.98
O=C(c1csc(CN(Cc2cccc(C(F)(F)F)c2)Cc2ccccc2F)n1)N1CCN(c2cccc(C(F)(F)F)c2)CC1	-13%	1.17
COc1cccc(C(=O)Nc2c(-c3cccs3)n[nH]c2C)c1	-8%	1.26
COc1ccccc1S(=O)(=O)N1CCC(NC(=O)c2ccc(C)o2)CC1	-3%	0.45
COCCn1cncc1CNc1ncnc2c1Cc1ccccc1OC2	-7%	1.26
Cc1noc(C)c1C(=O)O[C@@H](C)C(=O)N1CCc2ccccc2C1	-4%	0.59
Cc1noc(C)c1C(=O)N1CCC[C@H](Cc2nc(-c3cnccn3)no2)C1	11%	-1.45
C[C@]1(NC(=O)Nc2cccc3[nH]c(=O)ccc23)CCOC1	2%	-0.31
CCn1c(-c2ccccc2F)nc2cc(NC(C)=O)cc(C(=O)NCCc3cscn3)c21	-8%	1.06
CN(CCNC(=O)c1ccc2cnn(Cc3ccc(Cl)cc3)c2c1)C1CCCCC1	-9%	0.92
CC(C)CN(CC(=O)N(Cc1ccco1)C[C@H]1CCCO1)C(=O)Cc1ccc(F)cc1	-7%	1.07
